# According to ChEMBL document CHEMBL4888484, “Replenishing the malaria drug discovery pipeline: Screening and hit evaluation of the MMV Hit Generation Library 1 (HGL1) against asexual blood stage Plasmodium falciparum ,using a nano luciferase reporter read-out” (2022):
# Screen size: about 150,000 compounds; about 540 (0.36%) showed an effect of 50% or more. Some of the results follow.
# Test system: Plasmodium falciparum
# Assay: Primary screen in NF54 nanoGlo assay, in single point, at 2uM, 72h; a lower Z score goes with more inhibition
# Assay type: functional, Erythrocyte
# Conditions: timepoint 72 hour
Compound,% Inhibition [%],Z score
c1ccc2c(c1)C[C@H](CNCc1cc3ccccc3nc1N1CCCCC1)O2,-2,0.23
CCN(C(=O)c1ccc(Cn2cncn2)cc1)c1ccccc1C,-7,0.86
COc1ccc(CN2C(=O)O[C@H]3CN(c4cnccn4)C[C@H]32)cc1OC,-15,1.29
Cc1cc(NC(=O)C(=O)N[C@@H](C)C(C)(C)C)n(C)n1,7,-0.7
CC(C)(C)CN1CCN(c2cccc3c2C(=O)N(c2cccc(Cl)c2)C3=O)CC1,2,-0.38
FC(F)(F)c1nnc(NCc2cccc(-c3nnc[nH]3)c2)s1,-5,0.55
CN(C)C(=O)N1CCC[C@H]2C(=O)N(Cc3ccccc3)C(=O)[C@H]21,-9,0.79
O=C(c1cnccn1)N1CC[C@H](c2nc(C3CC3)no2)C1,-7,0.77
COc1cccc(C(=O)N2CCN(C(=O)CCc3scnc3C)CC2)c1,-1,0.08
CC(C)N1C[C@@H](NC(=O)CCC(=O)Nc2cccc(O)c2)CC1=O,-13,2.02
Cc1noc([C@H]2CN(C(=O)c3n[nH]c4ccccc34)CC23CCN(C)CC3)n1,-7,0.8
Cc1ccc2c(n1)OCCN2Cc1nnc(C(C)C)n1C,-14,1.27
COCCCN(Cc1c[nH]nc1-c1ccc(F)cc1)C1CCN(C)CC1,4,-0.58
Cc1ccc(CCNC(=O)N2CCc3[nH]nc(C)c3C2)cc1,-8,1.02
CN1CCCNC(=O)C12CCN(C(=O)c1ccc(Cl)s1)CC2,-11,1.75
C[C@H]1CN(C(=O)c2cnn(-c3cccc(Br)c3)c2)c2cccnc2O1,-3,0.5
CCOc1cccc(NS(=O)(=O)c2ccnn2C2CCC2)n1,-7,0.79
N[C@@H]1CCN(C(=O)C2CC2c2cccc(F)c2)C1 (stereo partly specified),-7,1
O=S(=O)(c1ccccc1F)N1CCc2oncc2C1,-14,2.14
O=C(c1ccnc(C2CC2)n1)N1CCc2[nH]c3ccc(F)cc3c2C1,-10,1.37
COC(=O)c1cc(NCc2c[nH]nc2-c2cccnc2)ccc1C,32,-3.62

Compound,% Inhibition [%],Z score
Cc1c(C(C)N[C@@H]2C=C[C@H](CO)C2)cnc2ccnn12 (stereo partly specified),-6,0.75
Cc1n[nH]cc1-c1ccc(-c2csc(N)n2)s1,-2,0.43
O=C(Nc1cccc(-c2cccnc2)c1)N1CCOC[C@@H](CO)C1,-14,1.92
O=C(NCc1cccc(Cl)c1)c1cc(N2CCOCC2)nc2ccccc12,6,-0.87
Cc1cccc([C@H](CNC(=O)c2[nH]cnc2C)N(C)C)c1,-5,0.73
c1ccc(Cc2noc(CN3CCC4(CC3)OCCO4)n2)cc1,-2,0.31
CCCC1(C2CCN(C(=O)c3ccccc3N(C)C)CC2)NC(=O)N(CC2CCCO2)C1=O (stereo unspecified),1,-0.14
COc1cc(N2CCC(c3nnc(Cn4cncn4)n3C)CC2)nc(N)n1,6,-0.83
O=C(NCCn1nnc2cc(S(=O)(=O)N3CCCC3)ccc21)Nc1ccccc1,33,-3.77
Cc1ccc(Nc2n[nH]c(N)c2S(=O)(=O)c2ccccc2)cc1,31,-3.55
Cc1cc(C(=O)N2CCC(F)(C(=O)N3CCOCC3)CC2)nn1C,-12,1.58
CC(=O)Nc1cccc(NC(=O)CNC(C2CCCC2)C2CCCC2)c1,6,-0.73
CS(=O)(=O)N1CC(C(=O)Nc2ccc3c(c2)OCO3)C1,-5,0.77
COCC1CCN(S(=O)(=O)N2CCCC[C@@H]2CCc2ccccc2)CC1,-13,1.5
C[C@@H]1Oc2ccc(NC(=O)C3(c4ccc(F)cc4)CCC3)cc2NC1=O,-7,1.1
C[C@H](Nc1ccc(N2CCCC2)c(F)c1)c1nc(C2CC2)no1,-15,2.74
O=C(c1ccc(Cl)cc1)N1CCCN(c2nc3ccccc3c3nnc(-c4ccccc4Cl)n23)CC1,7,-0.65
CCCN(C[C@H]1CCCO1)C(=O)c1cc2ccccc2n1C,-4,0.57
COc1cccc(C(=O)NCC(=O)N2CCC3(CCOCC3)C2)c1,-1,0.13
Cc1cc(CN=C(N)N[C@@H](C)c2ccc(Cl)cc2Cl)no1,-6,0.87
COCC1(CNS(=O)(=O)c2ccccc2)CCC1,6,-0.8

Compound,% Inhibition [%],Z score
CCOc1ncccc1CNC(=O)c1ccnc(-n2cnnc2)c1,-3,0.48
Cc1ccc2c(n1)OCCN2Cc1nccs1,-10,1.41
Cc1cc(C)nc(-n2nc(-c3ccc(Cl)cc3)c3c2NC(=O)C[C@@H]3c2ccc3c(c2)OCO3)n1,31,-0.26
c1ccc(CN2CCN(CCN3CCO[C@H]4CCCC[C@@H]43)CC2)cc1,-3,0.37
CCc1nc(CN2CCc3cncnc3C2)no1,-13,2.27
CCCNC(=O)N1CCC[C@@]2(CCC(=O)N(Cc3cccnc3)C2)C1,-7,1.21
Cc1ccc(-c2cn[nH]c2[C@H]2CCCN(C(=O)c3noc(C)c3CO)C2)cc1,-14,2.78
COCC(=O)N1CCC(C(=O)N(C)[C@@H](C)c2cc(-c3ccccc3)[nH]n2)CC1,25,-3.42
CCc1oc2c(NC(=O)N[C@H]3CCCNC3=O)cc(Cl)cc2c1C,3,-0.58
CCOC(=O)N1CCN(C(=O)c2cn3ccnc(-c4ccc(OC)cc4)c3n2)CC1,-4,0.68
Cc1nc(N2CCC[C@H]2c2nncn2C)c2cnn(C)c2n1,-5,0.87
CCOc1ccc(-c2cc(C(=O)Nc3ccccc3C(=O)c3ccccc3)no2)cc1,4,-0.51
O=C(Cn1c(-c2ccco2)nn(-c2ccc(Cl)cc2)c1=O)NCCCO,-8,1.64
C=C(C)C[C@H](C)C(=O)Nc1cc2sc(=O)n(C)c2cc1C,-3,0.46
Cc1cc(NC(=O)CN2CCC(n3nc(C(F)(F)F)n(C)c3=O)CC2)no1,-12,1.32
COC1(OC)CCOC[C@@H]1NC(=O)c1cc2c(C)c(C)ccc2[nH]1,-4,0.41
Cc1cccc(C)c1NC(=O)c1cccc(NC(=O)c2ccncc2F)c1,-4,0.48
CN(Cc1ccccc1)C(=O)[C@H]1CCCN(C2CCN(Cc3ccncc3)CC2)C1,2,-0.38
COc1ccccc1Nc1c(-c2ccc3c(c2)OCO3)nc2cnccn12,5,-0.6
CN1CC(NC(=O)C2(C)CC2(Cl)Cl)CCC1=O (stereo unspecified),8,-1.13
CC[C@H](NC(=O)c1ncccc1O)c1ncccc1C,-19,1.75

Compound,% Inhibition [%],Z score
Cc1noc(C2CCN(C(=O)[C@H](C(C)C)N3CCCCC3)CC2)n1,3,-0.45
O=C(CCc1ccncc1)NC[C@@H](c1ccc(F)cc1)N1CCCC1,-11,1.61
CCN1CCC[C@@H]1CNC(=O)c1c(C)noc1C,-1,0.21
Cc1csc(CNC2CCOC2c2ccccc2)n1 (stereo unspecified),-6,0.58
Cn1ncc(N2CCO[C@@H](CCNc3ncnc4c3CCC4)C2)cc1=O,-11,2.21
CC/C=C\CCCN1C[C@@H]2CN(C)C[C@]2(C(=O)O)C1,9,-1.27
CC(C)c1nnc([C@H](C)NC(=O)c2ccn(C(C)C)n2)o1,-2,0.36
C=CCN(CC(=O)N1CCN(c2ccc(-c3cccc(OC)c3)nn2)CC1)C(=O)c1ccc2c(c1)OCO2,-6,0.78
COc1ccccc1NC(=O)c1cnc2c(c1)ncn2C,-1,0.12
O=C(N[C@@H]1CN(C(=O)c2ccc(F)cc2)CC[C@@H]1CO)c1ccccc1,-10,1.3
NC(=O)Cc1cccc2c1CCN([C@H]1CCc3cc(Cl)ccc31)C2,-2,0.3
Cc1nn(CC(=O)O)c(C)c1NC(=O)c1c(-c2ccccc2Cl)noc1C,-4,0.54
CCCN1C(=O)COc2cc(-c3noc(C(=O)NCCCc4ccccc4)n3)ccc21,-4,0.51
O=C(c1cc(-c2cccc3ccccc23)[nH]n1)N1CCC(N2CCCCC2)CC1,-1,0.18
Cc1nn(C)cc1-c1c(-c2ccccc2)ncn1[C@H]1C[C@H]2CC[C@@H]1O2,-8,1.47
O=C1CN(C(=O)c2ccc(Cl)cc2)S(=O)(=O)c2ccccc21,-31,3.65
COC[C@H](Cc1ccccc1)N(C)CC(=O)NC(C1CC1)C1CC1,5,-0.44
C/C=C(\C)CN1CC[C@H](CNC(=O)Cc2ccncc2)C1,-10,1.52
CC(C)c1noc([C@@H]2CCCCN2C(=O)C2CCN(C(C)C)CC2)n1,10,-1.29
Cc1cccc(CCNC(=O)c2ccc(CN3CCC(C)CC3)o2)n1,7,-1.31
